Test results taken from the supplement of paper PMC11741623.
The other results are listed elsewhere or left out. Interaction screen of human proteins with wild-type SARS-CoV-2 proteins by split-DHFR complementation in yeast, 1 µg/mL methotrexate. Value = fitness of the pair (three or more lineages) minus that of the viral protein without a human partner, on a scale set by negative (0) and fused positive (1) controls, mean of up to three cultures; higher = more likely to interact. Active = false discovery rate below 0.05 (one-sided t-test) in at least one culture. Nearly all pairs are not hits, and differences among them are mostly noise (correlation between cultures about 0.3); most hits were seen in one culture only. Human sequences are the Swiss-Prot entries looked up by gene name; the clone may be another isoform. NSP2 values were corrected by the authors for a growth advantage. Listed are human proteins with a hit and a random twelfth of the others.

Assays:
Test in all cases: yeast fitness gain over the viral ORF with no human partner (scaled fitness); higher = more likely to interact
SARS-CoV-2 M = target: SARS-CoV-2 M
Procedure: (§1)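 Split mouse DHFR complementation in pooled diploid yeast: human ORFeome clones carry one fragment and viral ORFs the other; barcoded lineages compete in 1 µg/mL methotrexate and fitness is read by barcode sequencing in up to three cultures.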

SARS-CoV-2 NSP10 = target: SARS-CoV-2 NSP10
Procedure: as §1

SARS-CoV-2 NSP12 = target: SARS-CoV-2 NSP12
Procedure: as §1

SARS-CoV-2 NSP13 = target: SARS-CoV-2 NSP13
Procedure: as §1

SARS-CoV-2 NSP16 = target: SARS-CoV-2 NSP16
Procedure: as §1

SARS-CoV-2 NSP2 = target: SARS-CoV-2 NSP2
Procedure: as §1

SARS-CoV-2 NSP5 = target: SARS-CoV-2 NSP5
Procedure: as §1

SARS-CoV-2 NSP6 = target: SARS-CoV-2 NSP6
Procedure: as §1

SARS-CoV-2 NSP7 = target: SARS-CoV-2 NSP7
Procedure: as §1

SARS-CoV-2 ORF10 = target: SARS-CoV-2 ORF10
Procedure: as §1

SARS-CoV-2 ORF3A = target: SARS-CoV-2 ORF3A
Procedure: as §1

SARS-CoV-2 ORF3B = target: SARS-CoV-2 ORF3B
Procedure: as §1

SARS-CoV-2 ORF6 = target: SARS-CoV-2 ORF6
Procedure: as §1

SARS-CoV-2 ORF7B = target: SARS-CoV-2 ORF7B
Procedure: as §1

SARS-CoV-2 ORF8 = target: SARS-CoV-2 ORF8
Procedure: as §1

SARS-CoV-2 ORF9B = target: SARS-CoV-2 ORF9B
Procedure: as §1

SARS-CoV-2 ORF7A = target: SARS-CoV-2 ORF7A
Procedure: as §1

SARS-CoV-2 S = target: SARS-CoV-2 S
Procedure: as §1

SARS-CoV-2 NSP1 = target: SARS-CoV-2 NSP1
Procedure: as §1

SARS-CoV-2 NSP8 = target: SARS-CoV-2 NSP8
Procedure: as §1

[1] = target: SARS-CoV-2 ORF9Bwu (the 73-codon ORF)
Procedure: as §1

Measured: yeast fitness gain

B1: LAMA4, Q16363 (protein)
chain: MALSSAWRSVLPLWLLWSAACSRAASGDDNAFPFDIEGSSAVGRQDPPETSEPRVALGRLPPAAEKCNAGFFHTLSGECVPCDCNGNSNECLDGSGYCVHCQRNTTGEHCEKCLDGYIGDSIRGAPQFCQPCPCPLPHLANFAESCYRKNGAVRCICNENYAGPNCERCAPGYYGNPLLIGSTCKKCDCSGNSDPNLIFEDCDEVTGQCRNCLRNTTGFKCERCAPGYYGDARIAKNCAVCNCGGGPCDSVTGECLEEGFEPPTGMDCPTISCDKCVWDLTDDLRLAALSIEEGKSGVLSVSSGAAAHRHVNEINATIYLLKTKLSERENQYALRKIQINNAENTMKSLLSDVEELVEKENQASRKGQLVQKESMDTINHASQLVEQAHDMRDKIQEINNKMLYYGEEHELSPKEISEKLVLAQKMLEEIRSRQPFFTQRELVDEEADEAYELLSQAESWQRLHNETRTLFPVVLEQLDDYNAKLSDLQEALDQALNYVRDAEDMNRATAARQRDHEKQQERVREQMEVVNMSLSTSADSLTTPRLTLSELDDIIKNASGIYAEIDGAKSELQVKLSNLSNLSHDLVQEAIDHAQDLQQEANELSRKLHSSDMNGLVQKALDASNVYENIVNYVSEANETAEFALNTTDRIYDAVSGIDTQIIYHKDESENLLNQARELQAKAESSSDEAVADTSRRVGGALARKSALKTRLSDAVKQLQAAERGDAQQRLGQSRLITEEANRTTMEVQQATAPMANNLTNWSQNLQHFDSSAYNTAVNSARDAVRNLTEVVPQLLDQLRTVEQKRPASNVSASIQRIRELIAQTRSVASKIQVSMMFDGQSAVEVHSRTSMDDLKAFTSLSLYMKPPVKRPELTETADQFILYLGSKNAKKEYMGLAIKNDNLVYVYNLGTKDVEIPLDSKPVSSWPAYFSIVKIERVGKHGKVFLTVPSLSSTAEEKFIKKGEFSGDDSLLDLDPEDTVFYVGGVPSNFKLPTSLNLPGFVGCLELATLNNDVISLYNFKHIYNMDPSTSVPCARDKLAFTQSRAASYFFDGSGYAVVRDITRRGKFGQVTRFDIEVRTPADNGLILLMVNGSMFFRLEMRNGYLHVFYDFGFSGGPVHLEDTLKKAQINDAKYHEISIIYHNDKKMILVVDRRHVKSMDNEKMKIPFTDIYIGGAPPEILQSRALRAHLPLDINFRGCMKGFQFQKKDFNLLEQTETLGVGYGCPEDSLISRRAYFNGQSFIASIQKISFFDGFEGGFNFRTLQPNGLLFYYASGSDVFSISLDNGTVIMDVKGIKVQSVDKQYNDGLSHFVISSVSPTRYELIVDKSRVGSKNPTKGKIEQTQASEKKFYFGGSPISAQYANFTGCISNAYFTRVDRDVEVEDFQRYTEKVHTSLYECPIESSPLFLLHKKGKNLSKPKASQNKKGGKSKDAPSWDPVALKLPERNTPRNSHCHLSNSPRAIEHAYQYGGTANSRQEFEHLKGDFGAKSQFSIRLRTRSSHGMIFYVSDQEENDFMTLFLAHGRLVYMFNVGHKKLKIRSQEKYNDGLWHDVIFIRERSSGRLVIDGLRVLEESLPPTEATWKIKGPIYLGGVAPGKAVKNVQINSIYSFSGCLSNLQLNGASITSASQTFSVTPCFEGPMETGTYFSTEGGYVVLDESFNIGLKFEIAFEVRPRSSSGTLVHGHSVNGEYLNVHMKNGQVIVKVNNGIRDFSTSVTPKQSLCDGRWHRITVIRDSNVVQLDVDSEVNHVVGPLNPKPIDHREPVFVGGVPESLLTPRLAPSKPFTGCIRHFVIDGHPVSFSKAALVSGAVSINSCPAA
inactive: SARS-CoV-2 M 0.00946 | SARS-CoV-2 NSP10 = 0.0678 | SARS-CoV-2 NSP12 = -0.0987 | SARS-CoV-2 NSP13 = -0.0591 | SARS-CoV-2 NSP16 = -0.165 | SARS-CoV-2 NSP2 = -0.22 | SARS-CoV-2 NSP5 = -0.0869 | SARS-CoV-2 NSP6 = -0.118 | SARS-CoV-2 NSP7 = 0.0794 | SARS-CoV-2 ORF10 = -0.0274 | SARS-CoV-2 ORF3A -0.00162 | SARS-CoV-2 ORF3B 0.0626 | SARS-CoV-2 ORF6 = -0.0549 | SARS-CoV-2 ORF7B -0.00938 | SARS-CoV-2 ORF8 = -0.098 | SARS-CoV-2 ORF9B 0.0595

B2: LRRC42, Q9Y546 (protein)
chain: MSYYLSSENHLDPGPIYMRENGQLHMVNLALDGVRSSLQKPRPFRLFPKGFSVELCMNREDDTARKEKTDHFIFTYTREGNLRYSAKSLFSLVLGFISDNVDHIDSLIGFPEQIAEKLFSAAEARQKFTEPGAGLRALQKFTEAYGSLVLCSLCLRNRYLVISEKLEEIKSFRELTCLDLSCCKLGDEHELLEHLTNEALSSVTQLHLKDNCLSDAGVRKMTAPVRVMKRGLENLTLLDLSCNPEITDAGIGYLFSFRKLNCLDISGTGLKDIKTVKHKLQTHIGLVHSKVPLKEFDHSNCKTEGWADQIVLQWERVTAEAVKPRETSEPRAAAQRFYGKRSRAEAPLKCPLADTHMNSSEKLQFYKEKAPDCHGPVLKHEAISSQESKKSKKRPFEESETEQNNSSQPSKQKYVCLAVEDWDLLNSY
inactive: SARS-CoV-2 M -0.0635 | SARS-CoV-2 NSP10 = 0.121 | SARS-CoV-2 NSP12 = -0.179 | SARS-CoV-2 NSP13 = 0.0447 | SARS-CoV-2 NSP2 = -0.271 | SARS-CoV-2 NSP5 = -0.0161 | SARS-CoV-2 NSP7 = -0.173 | SARS-CoV-2 ORF10 = 0.0464 | SARS-CoV-2 ORF3B 0.0187 | SARS-CoV-2 ORF6 = -0.0362 | SARS-CoV-2 ORF7A -0.0455 | SARS-CoV-2 ORF7B -0.0228 | SARS-CoV-2 ORF8 = 0.0388 | SARS-CoV-2 ORF9B -0.0902 | SARS-CoV-2 S -0.219

B3: MLN, P12872 (protein)
chain: MVSRKAVAALLVVHVAAMLASQTEAFVPIFTYGELQRMQEKERNKGQKKSLSVWQRSGEEGPVDPAEPIREEENEMIKLTAPLEIGMRMNSRQLEKYPATLEGLLSEMLPQHAAK
inactive: SARS-CoV-2 M 0.146 | SARS-CoV-2 NSP1 = -0.0295 | SARS-CoV-2 NSP10 = -0.248 | SARS-CoV-2 NSP12 = 0.0228 | SARS-CoV-2 NSP13 = 0.0411 | SARS-CoV-2 NSP2 = -0.139 | SARS-CoV-2 NSP5 = 0.0088 | SARS-CoV-2 ORF3A 0.0663 | SARS-CoV-2 ORF6 = 0.0234 | SARS-CoV-2 ORF7B -0.0805 | SARS-CoV-2 ORF8 = 0.039 | SARS-CoV-2 ORF9B -0.069 | SARS-CoV-2 S -0.283

B4: MUTED, Q8TDH9 (protein)
chain: MSGGGTETPVGCEAAPGGGSKKRDSLGTAGSAHLIIKDLGEIHSRLLDHRPVIQGETRYFVKEFEEKRGLREMRVLENLKNMIHETNEHTLPKCRDTMRDSLSQVLQRLQAANDSVCRLQQREQERKKIHSDHLVASEKQHMLQWDNFMKEQPNKRAEVDEEHRKAMERLKEQYAEMEKDLAKFSTF
inactive: SARS-CoV-2 M 0.0382 | SARS-CoV-2 NSP1 = -0.0869 | SARS-CoV-2 NSP10 = -0.138 | SARS-CoV-2 NSP12 = -0.0252 | SARS-CoV-2 NSP13 = -0.0177 | SARS-CoV-2 NSP2 = -0.257 | SARS-CoV-2 NSP6 = 0.0771 | SARS-CoV-2 NSP7 = -0.275 | SARS-CoV-2 NSP8 = -0.0535 | SARS-CoV-2 ORF10 = -0.0581 | SARS-CoV-2 ORF3A -0.00031 | SARS-CoV-2 ORF3B 0.000824 | SARS-CoV-2 ORF6 = -0.00909 | SARS-CoV-2 ORF7A -0.125 | SARS-CoV-2 ORF7B -0.0201 | SARS-CoV-2 ORF8 = 0.0116 | SARS-CoV-2 ORF9B 0.0444 | [1] 0.0795 | SARS-CoV-2 S 0.00544
